Source: PMC12040169 (PLOS Biology, 2025)
This is one part of the list.

Tested on: T1, C. trachomatis L2/434/Bu expressing GFP (CTL2-GFP)
T1 construct: L2/434/Bu GFP intracellular growth in HeLa cells
Set-up: species or system HeLa; C. trachomatis total inclusion area by high-content imaging, normalised to DMSO
Details: total inclusion area; 28.5 h, 10 µM; inhibitor
How it was run: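 Bulk GFP and resorufin signals were read first. Wells were then fixed, stained with Hoechst and imaged to detect GFP inclusions and host nuclei. MICs followed the previously described calculation.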

SMILES	% of control remaining
Cc1cc2cn([C@H]3C[C@@H](O)[C@@H](CO)O3)c(=O)nc2[nH]1 [CBK201302]	97.8385
O=C(Cn1ncc2ccccc2c1=O)N1CCC(c2ccccc2)C1 (stereo not shown) [CBK281843]	73.659
COc1ccnc(N2CCc3c(ncn3C3CC3)C2)n1 [CBK304816]	71.0797
CCOc1ccc2ccccc2c1CNCc1cccnc1 [CBK269934C]	82.97
Cc1noc(C)c1S(=O)(=O)Nc1ccnn1C [CBK062073]	79.0724
COc1ccc(/C=C/C(=O)O)cc1S(=O)(=O)N1CCCCCC1 [CBK263565]	116.174
O=C(CN1CCN(c2nc3cc(Cl)ccc3s2)CC1)c1ccc2c(c1)OCCCO2 [CBK074737]	94.3763
Cc1n[nH]c(C)c1CNC(=O)c1cc2ccc(F)cc2[nH]1 [CBK283147]	102.661
O=C(Cc1ccccc1)Nc1ccccc1C(=O)NCc1cccnc1 [CBK269228]	90.9237
CCc1ccc(CNC(=O)Cn2cnc(-c3ccc(CN4CCC(C)CC4)cc3)c2)cc1 [CBK158710T]	69.9351
CSc1cccc(NC(=O)NCCN2CCNC2=O)c1 [CBK057191]	56.397
Cc1nc(CCN2CCN(c3ccc4nccn4n3)CC2)cs1 [CBK306932]	53.9789
COc1ccccc1/C=N/NC(=O)C(=O)NCc1ccccn1 [CBK262286]	93.9447
Nc1ncn(Cc2ccccc2)c2nc(SCC(=O)O)nc1-2 [CBK267027]	123.961
Cc1cc(C(=O)N2C[C@H]3CC[C@](O)(c4ccc(F)cc4)[C@H]3C2)on1 [CBK284354]	89.3025
COc1cc(C(=O)NCCN2CCCC2)ccc1Nc1cncc(-c2ccc(O)cc2)n1 [CBK122661]	85.7127
CCOc1ccccc1CNc1ccc(C2c3ccsc3CCN2C(=O)COC)cc1 (stereo not shown) [CBK286461]	114.385
Cc1cc(C2CCCCCN2S(=O)(=O)c2ccc(F)cc2)on1 (stereo not shown) [CBK284668]	76.5595
O=C(Nc1ccc(N2CCN(C(=O)c3ccco3)CC2)cc1)c1cc([N+](=O)[O-])ccc1N1CCOCC1 [CBK269052]	103.2
CCOC(=O)c1cc(Cl)cnc1C1CCN(C(=O)C2CC2)CC1 [CBK284810]	103.172
Cc1cnn(C2CCCN(C(=O)CCCc3cccs3)C2)c1 (stereo not shown) [CBK304168]	33.6851
COCc1cn([C@H]2CO[C@H]3[C@@H]2OC[C@H]3OC)nn1 [CBK289490]	117.783
